# Reference: the supplement of paper PMC9334596
# Several values for one entry are separate records, joined by “and”; a condition that tells them apart may be missing. Equal values may be shown once. In all, about 5,300 compounds were measured (“PER2::LUC luminescence relative to vehicle control”: median about 0.96, highest 2% from about 1.3 on). The list shows a part of the results.
# Tested on: mPer2Luc MEF
# Experiment: PER2::LUC luminescence relative to vehicle control (fold of vehicle); higher = higher PER2::LUC reporter signal
# Details: 10 µM
# In short: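 The value is PER2::LUC luminescence expressed as fold of vehicle control. Mouse embryonic fibroblasts carrying the mPer2Luc reporter were seeded at ~3000 cells per well in 384-well plates and grown in DMEM with 10% FBS at 37 °C and 5% CO2. Compounds from commercial libraries were added at 10 μM 48 h after seeding, and luminescence was read with the ONE-Glo luciferase assay system 24 h and 30 h after treatment, followed by an alamarBlue viability assay.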
Compound,PER2::LUC luminescence (time after treatment 24 h),PER2::LUC luminescence (time after treatment 30 h)
CC1(C)C(=O)[C@H]2C[C@]3(O)C4=CC(=O)O[C@@H](c5ccoc5)[C@@]4(C)CCC3[C@](C)(C2=O)[C@H]1CC(=O)O (some centres not stated),1.01,0.911
NCCSSCCN,0.939,0.882
Cc1cc(NC2CCCCC2)nc(-n2nc(C)cc2C)n1,0.916,0.814
CC(C)(C)NC(=O)[C@@H]1C[C@@H]2CCCC[C@@H]2CN1C[C@@H](O)[C@H](Cc1ccccc1)NC(=O)[C@H](CC(N)=O)NC(=O)c1ccc2ccccc2n1,0.894 and 0.795,0.994 and 0.933
COc1ccc2[nH]c([S@@+]([O-])Cc3ncc(C)c(OC)c3C)nc2c1,1.02 and 1.01 and 1.11,1.01 and 0.923 and 1.08
Cc1cc(N2CCOCC2)cc2[nH]c(-c3c(NC[C@@H](O)c4cccc(Cl)c4)cc[nH]c3=O)nc12,0.165,0.173
CC(C)NCC(O)c1ccc(O)c(O)c1 (configuration not stated),1.14 and 0.997 and 1.11,0.981 and 0.873 and 1.07
O=c1cc(-c2ccccc2O)oc2cc(O)ccc12,1.27,1.38
CCCCCN(CCCCC)C(=O)C(CCC(=O)O)NC(=O)c1ccc(Cl)c(Cl)c1 (configuration not stated),0.931,0.981
COc1c(N2C[C@@H]3CCCN[C@@H]3C2)c(F)cc2c(=O)c(C(=O)O)cn(C3CC3)c12,1.05,1.26
COc1ccc(C(=O)c2ccccc2)c(O)c1,1.22,1.21
CC(C)(C)c1ccc(C(=O)NC(=S)Nc2ccc(N)cc2)cc1,0.44,0.541
CC1(C)CCC[C@]2(C)[C@H]3CC(=O)O[C@]3(C)CC[C@@H]12,0.623,1.15
CC(=O)OCC(=O)[C@@]1(O)[C@H](C)C[C@H]2[C@@H]3CCC4=CC(=O)C=C[C@]4(C)[C@@]3(F)[C@@H](O)C[C@@]21C,0.707,1.01
CC1(C)C(=O)C=CC2(C)C1C=CC1(C)C2CCC2(C)C(c3ccoc3)OC(=O)C3OC312 (configuration not stated),0.103,0.0382
COc1ncnc(NS(=O)(=O)c2ccc(N)cc2)c1OC,0.986,0.84
C#CCCCCCCCCCCCC(O)CC(O)COC(C)=O (configuration not stated),0.961,0.963
O=C(c1ccc2c(c1)OCO2)N1CCCCC1,1,0.843
COc1ccc(C(=O)CC(=O)c2ccc(C(C)(C)C)cc2)cc1,0.849,1.15
OC(c1cc(C(F)(F)F)nc2c(C(F)(F)F)cccc12)C1CCCCN1 (configuration not stated),0.783 and 0.621,0.864 and 0.642
COc1ccc2c(c1)c(CC(=O)N1CCOCC1)c(C)n2C(=O)c1ccc(Cl)cc1,1.05,1.04

Compound,PER2::LUC luminescence (time after treatment 24 h),PER2::LUC luminescence (time after treatment 30 h)
NCC1CCN(c2nccc(-c3ccc4ccccc4c3)n2)CC1,0.584 and 0.557,0.666 and 0.629
CO/N=C(\C(=O)N[C@@H]1C(=O)N2C(C(=O)[O-])=C(C[N+]3(C)CCCC3)CS[C@H]12)c1csc(N)n1,0.725,1.11
Cc1coc2c1C(=O)C(=O)c1c-2ccc2c1CCCC2(C)C,0.923,1.05
Cc1cn2cc(C(=O)N(C)CCO)cc(N[C@@H]3CCOc4cccc(C)c43)c2n1,1.11,0.992
COc1ccc(CCN2CCN(CCCc3ccccc3)CC2)cc1OC,0.928,0.949
CC[C@H]1OC(=O)C[C@@H](O)[C@H](C)[C@@H](O[C@@H]2O[C@H](C)[C@@H](O)[C@H](N(C)C)[C@H]2O)[C@@H](CCN2C[C@H](C)C[C@H](C)C2)C[C@@H](C)C(=O)/C=C/C(C)=C/[C@@H]1CO[C@@H]1O[C@H](C)[C@@H](O)[C@@H](OC)[C@H]1OC,0.809,1.02
O=C1Cc2c([nH]c3ccc(Br)cc23)-c2ccccc2N1,1.15,1.88
CNCCCC12CCC(c3ccccc31)c1ccccc12,0.652,0.565
CCc1c(O)cc(O)c(C(=O)c2ccc(OCCN3CCOCC3)c(OC)c2)c1CC(=O)N(CCOC)CCOC,0.355,0.347
Oc1cc2c(cc1O)CN(C(=S)NCCc1ccc(Cl)cc1)CCC2,0.859,1.13
CCCCCC(=O)O[C@]1(C(C)=O)CC[C@H]2[C@@H]3CCC4=CC(=O)CC[C@]4(C)[C@H]3CC[C@@]21C,0.914,1.06
O=C(NCc1cccc(O)c1)c1cc2cc(F)ccc2[nH]1,0.948,0.986
CCCCCCC(=O)OC1CC(C)(C)NC(C)(C)C1,1.24,1.15
CC1(C)C[C@@H]1C(=O)N/C(=C\CCCCSC[C@H](N)C(=O)O)C(=O)O,1 and 0.914,1.06 and 0.891
Cc1cc(Cn2cnc3c2C[C@@H](C(=O)O)N(C(=O)C(c2ccccc2)c2ccccc2)C3)ccc1N,0.59,0.914
CN(C)Cc1cccc(N=C(c2ccccc2)c2c(O)[nH]c3cc(C(=O)N(C)C)ccc23)c1,0.742 and 0.494,0.727 and 0.408
NC[C@@H](O)c1ccc(O)c(O)c1,1.26,1.04
Nc1nc(Cl)nc2c1ncn2[C@@H]1O[C@H](COP(=O)(O)OP(=O)(O)OP(=O)(O)O)[C@H](O)C1O (some centres not stated),1.1,1.08
O=C(O[C@@H]1Cc2c(O)cc(O)cc2O[C@@H]1c1ccc(O)c(O)c1)c1cc(O)c(O)c(O)c1,1.02,0.897
C[C@@H](O)[C@H]1C(=O)N2C(C(=O)O)=C(S[C@@H]3CN[C@H](C(=O)N(C)C)C3)[C@H](C)[C@H]12,1.05,1.07
CC(=O)NCC(=O)N[C@H](CCC(=O)O)C(=O)O,1.03,1.02

Compound,PER2::LUC luminescence (time after treatment 24 h),PER2::LUC luminescence (time after treatment 30 h)
CCCCCCCC/C=C\CCCCCCCC(=O)NCCO,1.02 and 1.05,1.05 and 1.02
O=C(O)CCNc1cc(N2CCc3ccccc3CC2)nc(-c2cccnc2)n1,0.987,1.04
CC(=O)O[C@H]1C[C@@H]2CC[C@@H]3[C@H](CC[C@@]4(C)[C@H]3C[C@H]([N+]3(C)CCCCC3)[C@@H]4OC(C)=O)[C@@]2(C)C[C@@H]1N1CCCCC1,0.918,1.12
O[C@H]1CC[C@H](Nc2ncc3nc(Nc4c(F)cc(F)cc4F)n([C@H]4CCOC4)c3n2)CC1,0.731,0.67
Cc1cc(C)cc(OCC2CNC(=O)O2)c1 (configuration not stated),0.76,0.963
COc1ccc(C(=O)O)c(O)c1OC,0.945,0.923
COc1ccc(NC(=O)c2ccc(C(=N)N(C)C)cc2)c(C(=O)Nc2ccc(Cl)cn2)c1,0.825,0.803
CC1(C)O[C@@H]2C[C@H]3[C@@H]4CCC5=CC(=O)CC[C@]5(C)[C@@]4(F)[C@@H](O)C[C@]3(C)[C@]2(C(=O)CCl)O1,0.594,1.28
C[C@]12C=CC(=O)C=C1CC[C@H]1[C@@H]3C[C@@H](O)[C@](O)(C(=O)CO)[C@@]3(C)C[C@H](O)[C@@]12F,0.712,1.29
O=C(O)COc1ccccc1C(Nc1ccccn1)c1cc(Cl)c2cccnc2c1O (configuration not stated),1.02,0.962
C[C@@H]1O[C@@H](OC[C@H]2O[C@@H](Oc3c(-c4ccc(OCCO)c(OCCO)c4)oc4cc(OCCO)cc(O)c4c3=O)[C@H](O)[C@@H](O)[C@@H]2O)[C@H](O)[C@H](O)[C@H]1O,1.15,0.866
CCN(CC)C(=O)/C(C#N)=C/c1cc(O)c(O)c([N+](=O)[O-])c1,1.02,0.969
C=C1CCN([C@H](C)[C@](O)(Cn2cncn2)c2ccc(F)cc2F)CC1,1.03,0.879
NC(N)=NCCC[C@H](NC(=O)[C@@H](N)Cc1ccc(O)cc1)C(=O)O,1.04,0.909
CN(C/C=C/c1ccccc1)Cc1cccc2ccccc12,0.5,0.535
CC(=O)CCCCn1c(=O)c2c(ncn2C)n(C)c1=O,1.26,1.23
CCCC(=O)NCCc1c(I)[nH]c2ccc(OC)cc12,0.668,0.814
CN1C(=O)OC(C)(C)C1=O,1.07,0.86
COc1cccc(Nc2c(C(N)=O)cnc3c(C)cc(S(=O)(=O)c4cccc(C(=O)N(C)C)c4)cc23)c1,1.01,1.01
O=C(O)C=C1CCCc2ccccc2C1O (configuration not stated),1.01,0.91
OCCN1CCN(CCCN2c3ccccc3C=Cc3ccccc32)CC1,0.724,0.798

Compound,PER2::LUC luminescence (time after treatment 24 h),PER2::LUC luminescence (time after treatment 30 h)
Nc1c(CC(=O)O)cccc1C(=O)c1ccc(Br)cc1,1.09,1.02
N[C@@H](Cc1cc(CP(=O)(O)O)cc(-c2ccccc2Cl)c1)C(=O)O,0.98,0.874
OCC1OC(n2cnc3c(NC4CCCC4)nc(Cl)nc32)C(O)C1O (configuration not stated),0.932,0.97
Clc1ccc(C(c2ccc(Cl)cc2)[n+]2ccn(CC(OCc3ccc(Cl)cc3Cl)c3ccc(Cl)cc3Cl)c2)cc1 (configuration not stated),0.444,0.474
C[C@H]1O[C@@H](n2cc(F)c(=O)[nH]c2=O)[C@H](O)[C@@H]1O,0.9 and 0.84,0.663 and 0.685
CC(C)(C)c1nc(-c2cccc(NS(=O)(=O)c3c(F)cccc3F)c2F)c(-c2ccnc(N)n2)s1,0.717 and 0.611 and 0.581,0.667 and 0.589 and 0.579
CC1(C)CC[C@]2(C(=O)O)CC[C@]3(C)C(=CC[C@@H]4[C@@]5(C)CC[C@H](O)C(C)(C)[C@@H]5CC[C@]43C)[C@@H]2C1,0.935,0.889
O=C(O)CCCCC(CCSCc1ccccc1)SCc1ccccc1 (configuration not stated),1.33,1.19
CC(C)NC[C@H](O)COc1cccc2ccccc12,0.867 and 0.765,0.949 and 0.753
O=c1c(-c2ccc(O)cc2)coc2cc(O)ccc12,0.822,0.788
CS(=O)(=O)c1ccc(-c2cnc(N)c(C(=O)Nc3ccccc3)n2)cc1,0.446,0.49
CCCCCNC(=N)N/N=C/c1c[nH]c2ccc(OC)cc12,0.221,0.263
COc1ccc(S(=O)(=O)Nc2ccccc2CN(C)C/C=C/c2ccc(Cl)cc2)cc1,1.02 and 0.909,0.939 and 0.913
CC(C)(O)c1ccc2c(c1)ncn2-c1cccc(-c2ccccc2C#N)c1,0.829,0.89
O=C(O)c1ccc(S(=O)(=O)N(Cl)Cl)cc1,0.921,1.67
O=C(Oc1ccccc1C(=O)O)c1ccccc1O,1.15 and 0.613,1.16 and 0.995
COc1c(C)c2c(c(O)c1C/C=C(\C)CCC(=O)O)C(=O)OC2,0.802,0.675
CC(C)c1ccc2c(c1)CC[C@H]1[C@](C)(CN)CCC[C@]21C,0.712,0.857
